The subject of the assay is PC-3 prostate. Kind of assay: growth of human tumour cells (NCI), 48 h.

In PubChem BioAssay (NCI) one finds GI50 and TGI data, which are given here for 1 compound.

Structures are written as SMILES.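 Five compound concentrations were applied to cells in 96-well plates for 48 hours; endpoints were derived by simple linear interpolation of the resulting dose-response curve. Abbreviation: GI50, concentration required for 50% inhibition of growth.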 A number of entries come with more than one value. The other results are left out here. The source may hold further records. Results that share an entry repeat one measurement in other runs, samples, wells, individuals or studies. Brackets tell where a record comes from. The letters are not those of the source and start again with each entry.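 Definition used: TGI = concentration required for complete inhibition of growth.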

For `O/N=C/C1C(OCc2ccccc2)C(OCc2ccccc2)C(OCc2ccccc2)CN1Cc1ccccc1` (configuration not stated), the GI50 was 6.9 µM [sample A, 1 test] and 12.4 nM [sample B, 1 test]; the TGI was 49.9 µM [sample A, 1 test] and 4.14 µM [sample B, 1 test].
